Laboratory results as given in PubChem BioAssay (NCI).
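Five compound concentrations were applied to cells in 96-well plates for 48 hours; endpoints were derived by simple linear interpolation of the resulting dose-response curve. GI50 = concentration required for 50% inhibition of growth.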 The source holds more than one record for some entries. They are shown here; other results are not. There may be further records. For some assays here: The tests behind the records often covered other concentration ranges, which the source does not state; some values may only mark the edge of a range.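 TGI: concentration producing complete growth inhibition.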 For some assays here: Values given together are repeated measurements in other runs, samples, wells, individuals or studies. A tag in brackets gives the origin of a value. Letters count within one entry.

How the values were obtained:
Assay in all cases: inhibition of tumour cell growth, NCI panel, 48 h
[1] = test system: LXFL 529 NSCLC
[2] = test system: M14 melanoma
[3] = test system: MALME-3M melanoma
[4] = test system: OVCAR-8 ovarian
[5] = test system: RXF-631 renal
[6] = test system: SF-295 CNS
[7] = test system: SNB-19 CNS
[8] = test system: XF 498 CNS
[9] = test system: CAKI-1 renal
[10] = test system: CCRF-CEM leukemia
[11] = test system: HOP-18 NSCLC
[12] = test system: KM12 colon
[13] = test system: MOLT-4 leukemia
[14] = test system: A498 renal
[15] = test system: BT-549 breast
[16] = test system: DU-145 prostate
[17] = test system: HCC-2998 colon
[18] = test system: NCI-H522 lung
[19] = test system: OVCAR-3 ovarian
[20] = test system: SK-MEL-2 melanoma
[21] = test system: HL-60(TB) leukemia

Compound: COc1cc2c(c(OC)c1OC)-c1ccc(SC)c(=O)cc1[C@@H](NC(=O)c1cccc([N+](=O)[O-])c1)CC2
- TGI [1]: 86.4 nM and 40.2 µM
- TGI [2]: 47.5 nM and 38 µM
- TGI [3]: 64.7 nM and 41.7 µM
- TGI [4]: 66.2 nM and 17.1 µM
- TGI [5]: 49.8 nM and 14.1 µM
- TGI [6]: 53.9 nM and 15.5 µM
- TGI [7]: 93.9 nM and 19.1 µM
- TGI [8]: 72.6 nM and 10.7 µM

Compound: CC[C@@]1(O)CC(OC2CC(N3CCOCC3)C(O)C(C)O2)c2c(O)c3c(c(O)c2[C@H]1O)C(=O)c1cccc(O)c1C3=O (stereo partly drawn)
- GI50 [9]: < 12.2 nM [mean of 2 tests] and 0.767 nM [mean of 3 tests] and 25.8 nM [mean of 7 tests]
- TGI [10]: 0.649 nM, 1.19 µM, 201 nM
- GI50 [11]: 55.9 nM [mean of 4 tests] and 0.626 nM [mean of 5 tests]
- TGI [11]: 0.997 nM, 2.54 µM, 312 nM
- GI50 [12]: 0.966 nM and 107 nM
- GI50 [13]: 18.9 nM [mean of 10 tests] and 0.252 nM [mean of 5 tests]

Compound: CC[C@]12CN3CCc4c([nH]c5ccccc45)[C@@](C(=O)OC)(c4cc5c(cc4OC)N(C)[C@H]4[C@@](O)(C(=O)OC)[C@H](OC(C)=O)[C@]6(CC)C=CCN7CC[C@]54[C@@H]76)CC(C3)[C@H]1O2 (stereo partly drawn)
- TGI [14]: > 48.1 µM [sample A] and 4.67 µM [sample B]
- TGI [15]: > 100 µM [sample A] and 4.62 µM [sample B]
- TGI [16]: > 46 µM [sample A] and 415 nM [sample B]
- TGI [17]: 56.2 nM [sample A] and > 10 µM [sample B]
- TGI [12]: > 28.4 µM [sample A] and 1.14 µM [sample B]
- TGI [18]: 10.5 µM [sample A] and 139 nM [sample B]
- TGI [19]: 33.8 µM [sample A] and 201 nM [sample B]
- TGI [20]: 27.8 µM [sample A] and 1.6 µM [sample B]

Compound: CC(=O)O[C@@H]1c2c(c3c(=O)c4cccc(O)c4c(=O)c=3c2=[N+]=[N-])[C@H](OC(C)=O)[C@@H](OC(C)=O)[C@]1(C)O
- TGI [21]: 50 µM and 402 nM
